Experimental data as given in publication PMC4336329 (PLoS ONE, 2015).
About 14,000 (4.5%) of roughly 310,000 compounds showed an effect of 50% or more. Effects have a minus sign here. The list shows a part of the results.

target: human ether-à-go-go-related gene (hERG) potassium channel (human, UniProt Q12809); experiment: primary screen, population patch clamp on CHO cells stably expressing hERG
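Further: peak tail current of the secondary pulse compared with the same well before compound.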

Chain of human ether-à-go-go-related gene (hERG) potassium channel (Q12809 whole entry, looked up): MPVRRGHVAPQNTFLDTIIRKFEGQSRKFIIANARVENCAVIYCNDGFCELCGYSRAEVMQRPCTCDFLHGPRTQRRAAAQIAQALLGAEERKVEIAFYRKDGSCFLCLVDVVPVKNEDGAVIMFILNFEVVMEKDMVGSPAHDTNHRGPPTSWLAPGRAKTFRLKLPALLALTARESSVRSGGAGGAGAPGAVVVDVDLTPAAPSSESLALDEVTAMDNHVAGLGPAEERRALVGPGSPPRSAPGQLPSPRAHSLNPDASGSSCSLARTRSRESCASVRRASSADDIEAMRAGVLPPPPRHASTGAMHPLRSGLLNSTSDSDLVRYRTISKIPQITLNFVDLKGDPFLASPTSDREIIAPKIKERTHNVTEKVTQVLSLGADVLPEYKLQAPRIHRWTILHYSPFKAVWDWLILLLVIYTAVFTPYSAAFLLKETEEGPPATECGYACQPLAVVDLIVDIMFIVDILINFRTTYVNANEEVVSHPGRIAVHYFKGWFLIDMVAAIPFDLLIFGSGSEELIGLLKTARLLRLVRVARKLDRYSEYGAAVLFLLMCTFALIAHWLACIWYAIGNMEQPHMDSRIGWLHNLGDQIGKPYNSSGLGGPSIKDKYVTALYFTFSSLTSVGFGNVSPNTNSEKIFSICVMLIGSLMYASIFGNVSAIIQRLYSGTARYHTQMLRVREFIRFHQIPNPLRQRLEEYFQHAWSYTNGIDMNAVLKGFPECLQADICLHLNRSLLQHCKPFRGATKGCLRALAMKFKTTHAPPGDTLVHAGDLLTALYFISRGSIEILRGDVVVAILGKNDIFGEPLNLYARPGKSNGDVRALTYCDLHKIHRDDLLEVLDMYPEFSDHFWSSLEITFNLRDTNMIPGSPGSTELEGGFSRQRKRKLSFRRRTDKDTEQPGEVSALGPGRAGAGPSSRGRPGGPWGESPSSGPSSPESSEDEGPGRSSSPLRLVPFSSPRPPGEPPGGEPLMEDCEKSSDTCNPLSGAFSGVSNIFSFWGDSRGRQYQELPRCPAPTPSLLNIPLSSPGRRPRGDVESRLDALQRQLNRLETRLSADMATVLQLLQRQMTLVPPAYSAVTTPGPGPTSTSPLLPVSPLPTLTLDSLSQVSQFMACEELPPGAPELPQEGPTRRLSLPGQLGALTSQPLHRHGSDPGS

Structure (SMILES) | hERG current change (%, negative = inhibition) at 10uM [%]
COC(=O)CCCC1=CC2=CC(=O)C(C)(OC(=O)c3cccs3)C(=O)C2=CN1CCc1ccccn1 (stereo not drawn) | 5.1
CCCCn1c(N)c(N(CC(C)C)C(=O)C2=COCCO2)c(=O)[nH]c1=O | 5.08
Cc1ccc(C)n1-c1ccncc1 | -2.02
O=C(NCCN1CCCC1)c1ccc2c(=O)n(CCc3ccccc3)c(=O)[nH]c2c1 | 1.23
COc1ccc(C2CC(c3ccccc3OC(C)=O)=NN2C(C)=O)cc1 (stereo not drawn) | -6.31
Cn1cc(C(=O)OCC(=O)N2CCCCC2)c2ccccc21 | 10.2
CC1N=C(c2ccccc2Cl)c2cc(Br)ccc2NC1=O (stereo not drawn) | -25.1
CC(=O)N1CCN(c2ccc(NC(=O)c3ccc(Cl)c(Cl)c3)cc2)CC1 | -13.3
COc1ccc(Nc2nc(C)cc(C)c2C(N)=O)cc1OC | 9.1
CCc1nnc(NC(=O)CCC(=O)N2CCN(c3ccccn3)CC2)s1 | 2.11
COc1ccc(-n2cnnc2SCCC#N)cc1 | 6.38
COc1cc(/C=C/C(=O)OCC(=O)c2ccc3c(c2)NC(=O)CO3)ccc1OC(F)F | 17.1
Cc1ncoc1C(=O)N1CCCC(N2CCN(c3cccc(C(F)(F)F)c3)CC2)C1 (stereo not drawn) | -35.7
O=C(NC1=C(Nc2ccc(F)cc2)C(=O)c2ccccc2C1=O)c1ccc(Cl)cc1 | -2.98
CC(Cc1cccs1)NC(=O)Nc1ccccc1 (stereo not drawn) | 0.115
CCOC(=O)C1=C(C)N=C2c3ccccc3C(=O)C2C1c1ccccc1 (stereo not drawn) | 3.65
CC(=O)N1CCN(c2ccc(Oc3nnnn3-c3ccccc3)cc2)CC1 | -46
O=C(O)c1ccccc1SCC(=O)N1CCCCC1 | 15.2
COc1cccc(NC(=O)N2CCN(C(=O)C(Cc3ccc(OC)c(OC)c3)NC(C)=O)CC2)c1 (stereo not drawn) | -1.13
O=C(Nc1ccccn1)c1cccc(S(=O)(=O)N2CCCC2)c1 | 9.44
O=C(Nc1cccnc1)c1ccc2c(c1)OCO2 | 6.94
COc1ccc(C2C(C#N)=C(N)OC3=C2C(=O)CC(C)(C)C3)cc1 (stereo not drawn) | 12.8
COc1cc(CC(=O)NCc2ccc3c(c2)OCO3)cc(OC)c1OC | 11.2

Structure (SMILES) | hERG current change (%, negative = inhibition) at 10uM [%]
CCN1CCN(C(=O)C2CCC(=O)N(CCCN3CCCC3=O)C2)CC1 (stereo not drawn) | 19.7
CCOc1ccc(NC(=O)CN(c2ccc(OC)c(OC)c2)S(=O)(=O)c2ccc(C)cc2)cc1 | 16.2
c1ccc2c(CCNc3ncnc4nc[nH]c34)cccc2c1 | -6.53
Cc1ccc2[nH]c(O)c(N=O)c2c1 | -0.934
CC(C)Nc1nc(NC(C)C)nc(OCCOC(=O)c2ccccc2)n1 | -33.1
CCc1ccc2c(c1)/C(=C/C(=O)c1cccs1)C(=O)N2 | 2.57
Cc1cc(C(=O)N2CCCC(N3CCN(c4cccc(C(F)(F)F)c4)CC3)C2)c(C)o1 (stereo not drawn) | -23.2
O=C(O)CSc1cccc2cccc(C(=O)O)c12 | 9.64
CCOC(=O)C1CCN(C(=O)c2cc(OCC)c(OCC)c(OCC)c2)CC1 | -3.3
COc1cc(NC(=S)NN2CCN(C)CC2)cc(OC)c1 | 19.9
CC1CCCN(C(=O)c2ccc(NS(=O)(=O)c3ccc4[nH]c(=O)[nH]c4c3)cc2)C1 (stereo not drawn) | 5.66
CN(C(=O)Cn1nc(C(=O)O)c2ccccc2c1=O)c1ccccc1 | -10
O=C(CSc1ncn[nH]1)Nc1ccc(Cl)c(S(=O)(=O)N2CCOCC2)c1 | 12.6
O=C(Nc1ccccc1F)C1CCN(C(=O)NCc2ccccc2)CC1 | 9.76
CCOc1ccc2ccccc2c1C(=O)Nc1cc(=O)n(C)c(=O)n1C | -8.43
CCCC(=O)Nc1sc2c(c1C(=O)OC)C(C(=O)OC)CC2 (stereo not drawn) | -0.813
Clc1cccc(-c2ccnc3nc(-n4cccc4)nn23)c1 | 29.4
COc1ccc(NC(=O)CN2CCC(C(N)=O)(N3CCCCC3)CC2)c(OC)c1 | 1.56
COc1cc(CN2CCCC(C)C2)ccc1OCc1ccccc1 (stereo not drawn) | -49.8
O=C(Nc1nc2c(F)c(F)c(F)cc2s1)c1ccco1 | 20.9
CC(C)CCSc1nc2[nH]ncc2c(=O)[nH]1 | -7.22
COc1cccc(/C=N/NC(=O)c2nc(-c3ccccc3)cc(-c3ccccc3)n2)c1O | -9.46
